{"source": "paper PMC6212790", "note": "Some of the results follow. At the low end of the ranking the order means little."}
{"biological_target": "T1, GST-Rok-C97-191 (UniProt O34857)", "T1 sequence": "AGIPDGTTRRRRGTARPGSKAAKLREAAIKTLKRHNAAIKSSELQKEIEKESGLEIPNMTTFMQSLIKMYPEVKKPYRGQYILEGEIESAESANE", "assay": "protein binding microarray;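 further: rank score from −0.5 (least bound) to 0.5 (best bound)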", "conditions": "Rok is a gene silencer of Bacillus subtilis; high values mean tight binding; most listed sequences are background and not binding sites; double strand, one strand shown", "units": {"binding signal": "E-score"}}
{"sequence": "CCGACACG", "binding signal": -0.267}
{"sequence": "GTGGACAA", "binding signal": -0.079}
{"sequence": "CCCTGAAG", "binding signal": -0.137}
{"sequence": "GCGTGTAC", "binding signal": -0.0526}
{"sequence": "AAGGCGGG", "binding signal": -0.146}
{"sequence": "CAATCTTC", "binding signal": 0.177}
{"sequence": "AACCCCAT", "binding signal": -0.221}
{"sequence": "CGTGGTAA", "binding signal": 0.0314}
{"sequence": "ATATCATA", "binding signal": 0.207}
{"sequence": "GGCCAGAC", "binding signal": -0.163}
{"sequence": "ACGCGGGC", "binding signal": -0.223}
{"sequence": "CGTTGCAA", "binding signal": -0.0248}
{"sequence": "CAGGAGCA", "binding signal": -0.151}
{"sequence": "ACCCGTTC", "binding signal": 0.124}
{"sequence": "ATATATCA", "binding signal": 0.396}
{"sequence": "CTCGTTTA", "binding signal": -0.126}
{"sequence": "ACACGTGT", "binding signal": 0.00499}
{"sequence": "GGCACACC", "binding signal": -0.207}
{"sequence": "AAATGGCG", "binding signal": -0.123}
{"sequence": "CTCATACC", "binding signal": 0.0992}
{"sequence": "GATCAAAA", "binding signal": 0.0313}
{"sequence": "AGCGGGGC", "binding signal": -0.248}
{"sequence": "AACAAGAC", "binding signal": -0.0301}
{"sequence": "AGTAGCAG", "binding signal": 0.142}
{"sequence": "CAATAGAA", "binding signal": 0.223}
{"sequence": "GAGCTCTA", "binding signal": -0.105}
{"sequence": "AGCCTTAC", "binding signal": 0.0129}
{"sequence": "ACTTCTAT", "binding signal": 0.291}
{"sequence": "GCTTGTTA", "binding signal": -0.0434}
{"sequence": "CTCGAAGA", "binding signal": 0.0143}
{"sequence": "ACGCCCCG", "binding signal": -0.309}
{"sequence": "ACGCTCAT", "binding signal": -0.212}
{"sequence": "CCCTCAAA", "binding signal": -0.261}
{"sequence": "CGCCCCAG", "binding signal": -0.292}
{"sequence": "CCATTCTC", "binding signal": -0.103}
{"sequence": "GCTTCGAC", "binding signal": -0.0316}
{"sequence": "GCTGGTCA", "binding signal": -0.291}
{"sequence": "AAAATCTC", "binding signal": 0.242}
{"sequence": "CACGCCCA", "binding signal": -0.205}
{"sequence": "CGATGATC", "binding signal": 0.0105}
{"sequence": "GCCATCCA", "binding signal": -0.088}
{"sequence": "CCGAGGTC", "binding signal": -0.275}
{"sequence": "CCCGCACA", "binding signal": -0.273}
{"sequence": "CTGCCTTA", "binding signal": -0.0453}
{"sequence": "CCTGTACC", "binding signal": -0.068}
{"sequence": "AGTATCGC", "binding signal": 0.0182}
{"sequence": "CTCTCCAA", "binding signal": -0.122}
{"sequence": "AACATGAC", "binding signal": 0.0675}
{"sequence": "GATCGAAA", "binding signal": -0.0146}
{"sequence": "ATGAACGC", "binding signal": -0.0848}
{"sequence": "ACACGGAG", "binding signal": -0.204}
{"sequence": "AATGAGTC", "binding signal": -0.194}
{"sequence": "AAGCAAGA", "binding signal": -0.139}
{"sequence": "AACCGCGA", "binding signal": -0.00712}
{"sequence": "AGCTCCTG", "binding signal": -0.194}
{"sequence": "CTTACGAA", "binding signal": 0.0521}
{"sequence": "ATTCTTAC", "binding signal": 0.129}
{"sequence": "GGGGACGA", "binding signal": -0.0863}
{"sequence": "CATTCGTA", "binding signal": 0.0827}
{"sequence": "CACAGATG", "binding signal": 0.0345}
{"sequence": "GTGCGGCA", "binding signal": -0.192}
{"sequence": "GGTAGGAC", "binding signal": 0.19}
{"sequence": "ATATCAAA", "binding signal": 0.127}
{"sequence": "CGCAACCC", "binding signal": -0.158}
{"sequence": "TCTCACCA", "binding signal": -0.161}
{"sequence": "AATAATCA", "binding signal": 0.131}
{"sequence": "CCAGGGGA", "binding signal": -0.12}
{"sequence": "CGACCGCG", "binding signal": -0.167}
{"sequence": "AACGTCGG", "binding signal": -0.151}
{"sequence": "GAACAGAC", "binding signal": -0.0366}
{"sequence": "CAACTGGA", "binding signal": -0.0795}
{"sequence": "AAACTCCA", "binding signal": -0.0566}
{"sequence": "AACAGTTG", "binding signal": 0.0682}
{"sequence": "ATGTCAGA", "binding signal": -0.0137}
{"sequence": "ACAAAACA", "binding signal": 0.075}
{"sequence": "TAGCAAAA", "binding signal": 0.132}
{"sequence": "CTAGTATA", "binding signal": 0.37}
{"sequence": "AACTGAGG", "binding signal": 0.00289}
{"sequence": "CAAGACCG", "binding signal": -0.262}
{"sequence": "ATAAGCAG", "binding signal": 0.12}
{"sequence": "GCGAGCGA", "binding signal": -0.118}
{"sequence": "TCGTAAGA", "binding signal": 0.0452}
{"sequence": "AGAGATTC", "binding signal": -0.123}
{"sequence": "AATGTCAG", "binding signal": -0.105}
{"sequence": "TTAGGAAA", "binding signal": -0.0685}
{"sequence": "ATGGCCAC", "binding signal": -0.16}
{"sequence": "AAACGTTT", "binding signal": 0.00953}
{"sequence": "GCTCATCC", "binding signal": -0.105}
{"sequence": "GATCTCAA", "binding signal": -0.121}
{"sequence": "ATTCTAAG", "binding signal": 0.192}
{"sequence": "AACAATAG", "binding signal": 0.213}
{"sequence": "AACTTCAG", "binding signal": 0.15}
{"sequence": "AATCGTTC", "binding signal": 0.0218}
{"sequence": "CATTCCTC", "binding signal": 0.0829}
{"sequence": "ACGGTGCC", "binding signal": -0.187}
{"sequence": "AGTACTAA", "binding signal": 0.277}
{"sequence": "CCTCCGCG", "binding signal": -0.198}
{"sequence": "CCAAGGCC", "binding signal": -0.269}
{"sequence": "AACTCATT", "binding signal": 0.0936}
{"sequence": "GTCACCTA", "binding signal": -0.0923}
{"sequence": "ATCCTGCA", "binding signal": 0.0671}
{"sequence": "CAGACGCC", "binding signal": -0.305}
{"sequence": "CCCTCCGG", "binding signal": -0.308}
{"sequence": "CCTCTTCA", "binding signal": -0.193}
{"sequence": "CTAGATGA", "binding signal": 0.0691}
{"sequence": "CACCGCCC", "binding signal": -0.307}
{"sequence": "CCTTGCCC", "binding signal": -0.215}
{"sequence": "CAATCTAC", "binding signal": 0.395}
{"sequence": "ACGGGTCC", "binding signal": -0.206}
{"sequence": "AGTAACTG", "binding signal": 0.124}
{"sequence": "AGGGATTC", "binding signal": 0.0183}
{"sequence": "TCCAATAA", "binding signal": -0.0574}
{"sequence": "ACTAGTTC", "binding signal": 0.318}
{"sequence": "CTATATGA", "binding signal": 0.0756}
{"sequence": "AGCGGTCA", "binding signal": -0.175}
{"sequence": "AACGGGGG", "binding signal": -0.198}
{"sequence": "GTCCGCAA", "binding signal": -0.0227}
{"sequence": "AAAAACGT", "binding signal": -0.0641}
{"sequence": "ATTAGAAG", "binding signal": 0.23}
{"sequence": "AATCCGAT", "binding signal": 0.0337}
{"sequence": "ATTGACCG", "binding signal": -0.00184}
{"sequence": "TGCCTCCA", "binding signal": -0.16}
{"sequence": "TAAGTTCA", "binding signal": 0.121}
{"sequence": "CAAGGCGC", "binding signal": -0.213}
{"sequence": "GGTAGACC", "binding signal": -0.0686}
{"sequence": "GCTCAGAC", "binding signal": -0.241}
{"sequence": "GGGTAACC", "binding signal": -0.147}
{"sequence": "GGTCAAGA", "binding signal": -0.181}
{"sequence": "CACCCCAC", "binding signal": -0.11}
{"sequence": "GGCTGGTA", "binding signal": 0.169}
{"sequence": "CAATCCGC", "binding signal": -0.12}
{"sequence": "AACGGTGA", "binding signal": -0.0685}
{"sequence": "ATCCTGAG", "binding signal": 0.0291}
{"sequence": "CCAGAATC", "binding signal": -0.115}
{"sequence": "ATCTGCGG", "binding signal": -0.176}
{"sequence": "CCTTTCCG", "binding signal": -0.19}
{"sequence": "CAGGGTCC", "binding signal": -0.321}
{"sequence": "CTAGGCAC", "binding signal": -0.149}
{"sequence": "AAAGTCAC", "binding signal": -0.105}
{"sequence": "CTCTAGAA", "binding signal": 0.0573}
{"sequence": "CGGACCGC", "binding signal": -0.252}
{"sequence": "AGCCAGCG", "binding signal": -0.0812}
{"sequence": "AGCGCATG", "binding signal": -0.205}
{"sequence": "AACAGAGC", "binding signal": 0.0245}
{"sequence": "CCCCCTTA", "binding signal": -0.339}
{"sequence": "ATCGGCGC", "binding signal": 0.0019}
{"sequence": "ATCGACTA", "binding signal": 0.188}
{"sequence": "ATAAGTCA", "binding signal": 0.0752}
{"sequence": "CTCTACTA", "binding signal": 0.2}
{"sequence": "GGGACCTA", "binding signal": 0.0109}
{"sequence": "CGACCTTA", "binding signal": 0.0683}
{"sequence": "GAGAGTTA", "binding signal": 0.0853}
{"sequence": "AACGGTTA", "binding signal": -0.0912}
{"sequence": "AGATGGCG", "binding signal": 0.0262}
{"sequence": "TAGTCAGA", "binding signal": -0.0101}
{"sequence": "CTAAGACA", "binding signal": -0.0904}
{"sequence": "ATTTAACA", "binding signal": 0.213}
{"sequence": "ACGGCGCA", "binding signal": -0.112}
{"sequence": "GGCTGGAA", "binding signal": -0.118}
{"sequence": "ACAGCAGA", "binding signal": -0.142}
{"sequence": "TGACCACA", "binding signal": -0.14}
{"sequence": "GTATAAAA", "binding signal": 0.32}
{"sequence": "AAAAACGG", "binding signal": -0.125}
{"sequence": "ATCTGCAA", "binding signal": -0.00127}
{"sequence": "ATGGGAAC", "binding signal": -0.0604}
{"sequence": "CTCTATCA", "binding signal": 0.0167}
{"sequence": "CTCGGAGA", "binding signal": -0.0113}
{"sequence": "CACGCGGC", "binding signal": -0.25}
{"sequence": "ATGGCATA", "binding signal": -0.0363}
{"sequence": "TCACCCCA", "binding signal": -0.026}
{"sequence": "AAATACTA", "binding signal": 0.434}
{"sequence": "GGGGTTGA", "binding signal": -0.294}
